Hit rate of the full screen: of about 390,000 compounds, about 17,000 (4.4%) were called active. The inconclusive results got no clear call from the source; some entries with a clear call stand among them for comparison. Calls follow the shape of the dose curve; as a rule, active = well fitted inhibition curve with a large enough effect; inconclusive = small, poorly fitted or top-dose-only effect; inactive = no such curve, though single readings can be large or run the other way. Potencies beside an inconclusive call are fits to weak or partial responses and may not hold up.
Molecular target: Lysine-specific demethylase 4A (Homo sapiens) (UniProt O75164)
Experiment: qHTS Assay for Inhibitors of JMJD2A-Tudor Domain; also: nearly all actives have a fitted effect of over 50% in size
Settings: AlphaScreen JMJD2A-Tudor / H3K4me3 peptide binding; series mostly up to 114 µM
Potency is read from the fitted curve at half-maximal effect; tags tell the direction and shape of the fitted curve.

UniProt O75164, sequence (O75164 whole entry, looked up, the tested form may be a part): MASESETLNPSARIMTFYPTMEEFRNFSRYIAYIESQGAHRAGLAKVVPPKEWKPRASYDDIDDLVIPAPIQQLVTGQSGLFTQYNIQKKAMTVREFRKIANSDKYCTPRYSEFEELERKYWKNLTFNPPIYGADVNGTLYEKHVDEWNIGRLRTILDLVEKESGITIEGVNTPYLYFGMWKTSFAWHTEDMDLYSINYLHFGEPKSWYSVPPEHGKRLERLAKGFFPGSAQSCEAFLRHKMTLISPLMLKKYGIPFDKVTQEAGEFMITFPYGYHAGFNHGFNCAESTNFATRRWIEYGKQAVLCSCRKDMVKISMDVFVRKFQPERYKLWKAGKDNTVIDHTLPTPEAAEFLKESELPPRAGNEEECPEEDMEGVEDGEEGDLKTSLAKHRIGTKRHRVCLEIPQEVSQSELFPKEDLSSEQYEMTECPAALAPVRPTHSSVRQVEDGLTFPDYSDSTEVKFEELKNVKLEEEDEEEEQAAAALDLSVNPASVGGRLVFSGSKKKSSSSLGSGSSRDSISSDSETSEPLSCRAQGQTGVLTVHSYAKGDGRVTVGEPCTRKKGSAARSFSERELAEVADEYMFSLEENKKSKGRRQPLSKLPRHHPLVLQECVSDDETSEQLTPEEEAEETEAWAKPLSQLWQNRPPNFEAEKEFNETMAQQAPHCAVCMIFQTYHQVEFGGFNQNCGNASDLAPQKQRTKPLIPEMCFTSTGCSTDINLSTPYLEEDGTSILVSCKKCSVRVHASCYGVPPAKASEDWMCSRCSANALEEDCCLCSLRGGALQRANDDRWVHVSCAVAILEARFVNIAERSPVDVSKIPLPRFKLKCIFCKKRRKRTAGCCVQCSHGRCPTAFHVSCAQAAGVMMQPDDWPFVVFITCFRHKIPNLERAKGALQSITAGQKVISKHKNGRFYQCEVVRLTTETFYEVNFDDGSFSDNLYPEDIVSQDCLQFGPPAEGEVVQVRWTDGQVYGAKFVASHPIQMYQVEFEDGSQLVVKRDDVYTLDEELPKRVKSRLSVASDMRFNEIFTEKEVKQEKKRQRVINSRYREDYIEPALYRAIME

SMILES | Potency
COc1ccc(Cn2c(SCc3ccc(C(=O)NCc4ccc(C)cc4)cc3)nc3cccnc32)cc1 | inactive
O=C(NC(=S)NCCN1CCOCC1)c1ccc(Cl)cc1Cl | inactive
O=C(O)Cn1c(O)c(C2=c3ccccc3=NC2=O)sc1=O | inconclusive: 28.2 µM [inhibitor, partial curve]
COc1cc(/C=C2/C(=O)NN(c3ccccc3)C2=O)cc(Br)c1O | inconclusive: 50.1 µM [inhibitor, partial curve]
COc1ccc(NC(=O)C2CCN(S(=O)(=O)c3ccc4c(c3)NC(=O)CO4)CC2)cc1 | inactive
Cc1cc2c(s1)c1cnn(Cc3ccccc3F)c(=O)c1n2Cc1ccccc1F | inactive
O=C(NCc1ccco1)C1CCN(c2nc3ccccc3n2Cc2ccc(F)cc2)CC1 | inconclusive: 44.7 µM [inhibitor, partial curve, poor fit]
CCC1Nc2ncnc(N3CCc4ccccc4C3)c2N(Cc2ccc(Cl)cc2)C1=O (stereo unspecified) | inconclusive: 28.2 µM [inhibitor, full curve, poor fit]
CCc1ccc(C(=O)c2cn(CC(=O)NCCc3ccccc3)c3nc(C)ccc3c2=O)cc1 | inactive
COc1nccnc1NS(=O)(=O)c1ccc(NC(=S)NC(=O)/C=C/c2ccc(F)cc2)cc1 | inconclusive: 56.2 µM [inhibitor, partial curve]
S=C(NCCN1CCOCC1)Nc1ccc(Nc2ccccc2)cc1 | inactive
Cc1cc2nc(CO)[nH]c2cc1C | inactive
COc1cc(CNc2ccc(O)cc2)cc(Br)c1OCc1ccccc1 | active: 44.7 µM
O=C(c1ccccc1)N1CCN(c2ccccc2)CC1 | inactive
CCN1CCc2c(C#N)c(N3CCCCC3)nc(NCc3ccccc3)c2C1 | inconclusive: 56.2 µM [inhibitor, partial curve]
c1ccc(CC2CCN(C3=Nc4cccc5cccc3c45)CC2)cc1 | active: 22.4 µM
Cn1ncc2c(=S)nc(Cl)[nH]c21 | active: 22.4 µM
Cc1ccc(N2CCN(C(=O)c3cc(C(=O)c4ccccc4C)c[nH]3)CC2)c(C)c1 | inconclusive: 50.1 µM [inhibitor, partial curve]
Cc1cc(C)cc(OCC(=O)O/N=C(\N)c2ccccc2Cl)c1 | inactive
CCC1CCCCN1CCCNC(=O)c1ccc2c(c1)c(C)c(C)n2CC (stereo unspecified) | inconclusive: 63.1 µM [inhibitor, partial curve, poor fit]
COc1cccc2sc(N(CCCN(C)C)C(=O)c3ccc(S(=O)(=O)N4CCc5ccccc5C4)cc3)nc12 | inconclusive: 44.7 µM [inhibitor, partial curve]
CCOC(=O)c1c(Nc2ccc(C)c(C)c2)nnc(-c2ccccc2)c1-c1ccccc1 | inconclusive: 8.91 µM [inhibitor, full curve]
COC(=O)c1ccc(CSc2nc3c(c(=O)n2-c2ccc(C)cc2)SCC3)o1 | inconclusive: 28.2 µM [inhibitor, full curve]

SMILES | Potency
N#C/C(=C\c1ccc(O)cc1)C(=O)NCC1CCCO1 (stereo unspecified) | inactive
CCCNC(=O)NC(=O)COc1ccc(-c2ccc(C#N)cc2)cc1 | inactive
COc1ccc(C(=O)Nc2ccc(O)c3ccccc23)cc1OC | inconclusive: 79.4 µM [inhibitor, single point]
C/C(=N\Nc1ccc(C(F)(F)F)cc1[N+](=O)[O-])C1CC1 | inconclusive: 3.98 µM [inhibitor, full curve]
CC(=O)c1c(C)[nH]c(C(=O)COC(=O)c2cc(C)oc2C)c1C | inactive
O=C(NCc1ccc2c(c1)OCO2)c1ccc(C2SCC(=O)N2Cc2ccco2)cc1 (stereo unspecified) | inconclusive: 50.1 µM [inhibitor, partial curve]
O=C(CCN1CCc2ccccc2C1)Nc1ccc(F)cc1 | inconclusive: 39.8 µM [inhibitor, partial curve]
O=C(Cn1c(=O)sc2ccccc21)NCc1ccccn1 | inconclusive: 15.8 µM [inhibitor, full curve, poor fit]
C=CCc1cc(Cl)ccc1OCCNCCOC | active: 1 µM
Oc1ccc(N2CCN(C(=S)NCCc3ccccc3)CC2)cc1 | inconclusive: 44.7 µM [inhibitor, partial curve]
O=C(CCS(=O)(=O)c1ccc2c(c1)NC(=O)CO2)NCCc1ccccc1 | inconclusive: 22.4 µM [inhibitor, partial curve, poor fit]
Cc1cc(N2CCCC2)ccc1NC(=O)COc1ccccc1 | inconclusive: 56.2 µM [inhibitor, partial curve]
CCn1c(=O)c(C(=O)CN2c3ccccc3CC2C)c(N)n(Cc2ccccc2)c1=O (stereo unspecified) | inconclusive: 44.7 µM [inhibitor, single point]
COc1cc(/C=N/N2C(=O)c3ccccc3NC2(C)c2cccc([N+](=O)[O-])c2)cc(Br)c1O (stereo unspecified) | inconclusive: 39.8 µM [inhibitor, partial curve]
O=C1Nc2ccccc2/C1=C\C(=O)c1ccccc1 | inconclusive: 31.6 µM [inhibitor, partial curve]
Cc1cccc(S(=O)(=O)Nc2cccc3c2C(=O)c2ccccc2-3)c1 | inactive
COC(=O)c1c(C(=O)OC)c(-c2ccc(Cl)cc2)n2c1CS(=O)(=O)C2 | inconclusive: 3.16 µM [inhibitor, partial curve]
CC1(C)C2CCC(C2)C1(C)NC(=O)CN1CCN(Cc2ccccc2)CC1 (stereo unspecified) | active: 1.41 µM
COc1ccc(-n2c(CCC(=O)O)ccc2-c2ccc(F)cc2)c(OC)c1 | inconclusive: 63.1 µM [inhibitor, partial curve]
CCN(CC)CCCN1C=C2C(=O)C(C)(OC(=O)C3CCCC3)C(=O)C=C2C=C1c1ccsc1 (stereo unspecified) | inconclusive: 28.2 µM [inhibitor, partial curve]
CC1CCN(S(=O)(=O)c2ccc3nc(NCc4ccc(N(C)C)cc4)ccc3c2)CC1 | active: 14.1 µM
COc1c(Cl)cc(-c2noc(C)c2C(=O)NCc2ccccc2)cc1Cl | inconclusive: 22.4 µM [inhibitor, full curve, poor fit]
COc1cc(/C=N/N2CCN(c3ccc(Cl)cc3)CC2)cc(OC)c1OC(C)=O | inactive

Reference: PubChem BioAssay AID504339 (National Center for Advancing Translational Sciences (NCATS), 2011)
